Test results published in patent US8962844B2, “1,3,4-oxadiazole and 1,3,4-thiadiazole β-lactamase inhibitors” (priority 2012, dated 2015).
Structures can show the parent of a compound that is named as a salt. Some entries share one result that the patent states for a list of compounds. At least one structure is not confirmed: it was looked up by name or label, or the drawing left a doubt.

Target: KPC-2 (Klebsiella pneumoniae, UniProt Q9F663)
Format: biochemical, K. pneumoniae
Settings: KPC-2, 100 μM nitrocefin, 1×PBS pH 7.4, 25° C.

Sequence of KPC-2 (Q9F663 25-293 limits assumed): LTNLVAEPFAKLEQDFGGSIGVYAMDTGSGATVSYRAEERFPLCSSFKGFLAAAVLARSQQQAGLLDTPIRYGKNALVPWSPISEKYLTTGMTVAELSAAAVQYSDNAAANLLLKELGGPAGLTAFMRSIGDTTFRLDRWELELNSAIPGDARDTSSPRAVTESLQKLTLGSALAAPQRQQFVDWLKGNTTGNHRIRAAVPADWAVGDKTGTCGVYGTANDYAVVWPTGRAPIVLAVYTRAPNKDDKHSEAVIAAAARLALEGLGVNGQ

SMILES	binding affinity for the β-lactamase enzyme (kinact/K, Table IV) [M⁻¹ s⁻¹]
O=C1N2C[C@@H](CC[C@H]2c2nnc([C@H]3CCNC3)o2)N1OS(=O)(=O)O [Compound 758, (2S,5R)-7-oxo-2-(5-((S)-pyrrolidin-3-yl)-1,3,4-oxadiazol-2-yl)-1,6-diazabicyclo[3.2.1]octan-6-yl hydrogen sulfate]	1000 to 99000
O=C1N2C[C@@H](CC[C@H]2c2nnc([C@@H]3CCNC3)o2)N1OS(=O)(=O)O [Compound 759, (2S,5R)-7-oxo-2-(5-((R)-pyrrolidin-3-yl)-1,3,4-oxadiazol-2-yl)-1,6-diazabicyclo[3.2.1]octan-6-yl hydrogen sulfate]	1000 to 99000
N[C@@H]1CN[C@H](c2nnc([C@@H]3CC[C@@H]4CN3C(=O)N4OS(=O)(=O)O)o2)C1 [Compound 760, (2S,5R)-2-(5-((2S,4S)-4-aminopyrrolidin-2-yl)-1,3,4-oxadiazol-2-yl)-7-oxo-1,6-diazabicyclo[3.2.1]octan-6-yl hydrogen sulfate]	1000 to 99000
N[C@H]1CN[C@@H](c2nnc([C@@H]3CC[C@@H]4CN3C(=O)N4OS(=O)(=O)O)o2)C1 [Compound 761, (2S,5R)-2-(5-((2R,4R)-4-aminopyrrolidin-2-yl)-1,3,4-oxadiazol-2-yl)-7-oxo-1,6-diazabicyclo[3.2.1]octan-6-yl hydrogen sulfate]	1000 to 99000
N[C@H]1CN[C@H](c2nnc([C@@H]3CC[C@@H]4CN3C(=O)N4OS(=O)(=O)O)o2)C1 [Compound 762, (2S,5R)-2-(5-((2S,4R)-4-aminopyrrolidin-2-yl)-1,3,4-oxadiazol-2-yl)-7-oxo-1,6-diazabicyclo[3.2.1]octan-6-yl hydrogen sulfate]	1000 to 99000
N[C@@H]1CN[C@@H](c2nnc([C@@H]3CC[C@@H]4CN3C(=O)N4OS(=O)(=O)O)o2)C1 [Compound 763, (2S,5R)-2-(5-((2R,4S)-4-aminopyrrolidin-2-yl)-1,3,4-oxadiazol-2-yl)-7-oxo-1,6-diazabicyclo[3.2.1]octan-6-yl hydrogen sulfate]	1000 to 99000
O=C1N2C[C@@H](CC[C@H]2c2nnc(CC3CCNC3)o2)N1OS(=O)(=O)O (stereo partly drawn) [Compound 764, (2S,5R)-7-oxo-2-(5-(pyrrolidin-3-ylmethyl)-1,3,4-oxadiazol-2-yl)-1,6-diazabicyclo[3.2.1]octan-6-yl hydrogen sulfate]	1000 to 99000
O=C1N2C[C@@H](CC[C@H]2c2nnc(CN[C@H]3CCNC3)o2)N1OS(=O)(=O)O [Compound 765, (2S,5R)-7-oxo-2-(5-(((S)-pyrrolidin-3-ylamino)methyl)-1,3,4-oxadiazol-2-yl)-1,6-diazabicyclo[3.2.1]octan-6-yl hydrogen sulfate]	1000 to 99000
O=C1N2C[C@@H](CC[C@H]2c2nnc(CN[C@@H]3CCNC3)o2)N1OS(=O)(=O)O [Compound 766, (2S,5R)-7-oxo-2-(5-(((R)-pyrrolidin-3-ylamino)methyl)-1,3,4-oxadiazol-2-yl)-1,6-diazabicyclo[3.2.1]octan-6-yl hydrogen sulfate]	1000 to 99000
O=C1N2C[C@@H](CC[C@H]2c2nnc(CNC3CCNCC3)o2)N1OS(=O)(=O)O [Compound 769, (2S,5R)-7-oxo-2-(5-((piperidin-4-ylamino)methyl)-1,3,4-oxadiazol-2-yl)-1,6-diazabicyclo[3.2.1]octan-6-yl hydrogen sulfate]	1000 to 99000
O=C1N2C[C@@H](CC[C@H]2c2nnc(CCNC3CCNCC3)o2)N1OS(=O)(=O)O [Compound 770, (2S,5R)-7-oxo-2-(5-(2-(piperidin-4-ylamino)ethyl)-1,3,4-oxadiazol-2-yl)-1,6-diazabicyclo[3.2.1]octan-6-yl hydrogen sulfate]	100000 to 999000
O=C1N2C[C@@H](CC[C@H]2c2nnc(CCCNC3CCNCC3)o2)N1OS(=O)(=O)O [Compound 771, (2S,5R)-7-oxo-2-(5-(3-(piperidin-4-ylamino)propyl)-1,3,4-oxadiazol-2-yl)-1,6-diazabicyclo[3.2.1]octan-6-yl hydrogen sulfate]	1000 to 99000
O=C1N2C[C@@H](CC[C@H]2c2nnc(CCCCNC3CCNCC3)o2)N1OS(=O)(=O)O [Compound 772, (2S,5R)-7-oxo-2-(5-(4-(piperidin-4-ylamino)butyl)-1,3,4-oxadiazol-2-yl)-1,6-diazabicyclo[3.2.1]octan-6-yl hydrogen sulfate]	1000 to 99000
NC1CCN(c2nnc([C@@H]3CC[C@@H]4CN3C(=O)N4OS(=O)(=O)O)o2)CC1 [Compound 773, (2S,5R)-2-(5-(4-aminopiperidin-1-yl)-1,3,4-oxadiazol-2-yl)-7-oxo-1,6-diazabicyclo[3.2.1]octan-6-yl hydrogen sulfate]	1000 to 99000
NC1CCN(Cc2nnc([C@@H]3CC[C@@H]4CN3C(=O)N4OS(=O)(=O)O)o2)CC1 [Compound 774, (2S,5R)-2-(5-((4-aminopiperidin-1-yl)methyl)-1,3,4-oxadiazol-2-yl)-7-oxo-1,6-diazabicyclo[3.2.1]octan-6-yl hydrogen sulfate]	1000 to 99000
O=C1N2C[C@@H](CC[C@H]2c2nnc(CCN3CCNCC3)o2)N1OS(=O)(=O)O [Compound 776, (2S,5R)-7-oxo-2-(5-(2-(piperazin-1-yl)ethyl)-1,3,4-oxadiazol-2-yl)-1,6-diazabicyclo[3.2.1]octan-6-yl hydrogen sulfate]	1000 to 99000
O=C1N2C[C@@H](CC[C@H]2c2nnc(CN3CCNCC3)o2)N1OS(=O)(=O)O [Compound 777, (2S,5R)-7-oxo-2-(5-(piperazin-1-ylmethyl)-1,3,4-oxadiazol-2-yl)-1,6-diazabicyclo[3.2.1]octan-6-yl hydrogen sulfate]	1000 to 99000
O=C1N2C[C@@H](CC[C@H]2c2nnc([C@@H]3CNCCN3)o2)N1OS(=O)(=O)O [Compound 778, (2S,5R)-7-oxo-2-(5-((S)-piperazin-2-yl)-1,3,4-oxadiazol-2-yl)-1,6-diazabicyclo[3.2.1]octan-6-yl hydrogen sulfate]	1000 to 99000
O=C1N2C[C@@H](CC[C@H]2c2nnc([C@H]3CNCCN3)o2)N1OS(=O)(=O)O [Compound 779, (2S,5R)-7-oxo-2-(5-((R)-piperazin-2-yl)-1,3,4-oxadiazol-2-yl)-1,6-diazabicyclo[3.2.1]octan-6-yl hydrogen sulfate]	100000 to 999000
N[C@H]1CC[C@@H](c2nnc([C@@H]3CC[C@@H]4CN3C(=O)N4OS(=O)(=O)O)o2)CC1 [Compound 780, (2S,5R)-2-(5-((1s,4R)-4-aminocyclohexyl)-1,3,4-oxadiazol-2-yl)-7-oxo-1,6-diazabicyclo[3.2.1]octan-6-yl hydrogen sulfate]	1000 to 99000
N[C@H]1C[C@H](c2nnc([C@@H]3CC[C@@H]4CN3C(=O)N4OS(=O)(=O)O)s2)C1 [Compound 783, (2S,5R)-2-(5-((1r,3S)-3-aminocyclobutyl)-1,3,4-thiadiazol-2-yl)-7-oxo-1,6-diazabicyclo[3.2.1]octan-6-yl hydrogen sulfate]	1000 to 99000
N=C(N)N[C@H]1C[C@@H](c2nnc([C@@H]3CC[C@@H]4CN3C(=O)N4OS(=O)(=O)O)s2)C1 [Compound 784, (2S,5R)-2-(5-((1s,3R)-3-guanidinocyclobutyl)-1,3,4-thiadiazol-2-yl)-7-oxo-1,6-diazabicyclo[3.2.1]octan-6-yl hydrogen sulfate]	1000 to 99000
N=C(N)N[C@H]1C[C@H](c2nnc([C@@H]3CC[C@@H]4CN3C(=O)N4OS(=O)(=O)O)s2)C1 [Compound 785, (2S,5R)-2-(5-((1r,3S)-3-guanidinocyclobutyl)-1,3,4-thiadiazol-2-yl)-7-oxo-1,6-diazabicyclo[3.2.1]octan-6-yl hydrogen sulfate]	100000 to 999000
